Assay results reported in ChEMBL document CHEMBL4888484, “Replenishing the malaria drug discovery pipeline: Screening and hit evaluation of the MMV Hit Generation Library 1 (HGL1) against asexual blood stage Plasmodium falciparum ,using a nano luciferase reporter read-out” (2022).
The campaign covered roughly 150,000 compounds. About 540 (0.36%) showed an effect of 50% or more. This is one part of the list.

tested on: Plasmodium falciparum; experiment: Primary screen in NF54 nanoGlo assay, in single point, at 2uM, 72h; a lower Z score goes with more inhibition; type: functional, Erythrocyte; settings: timepoint 72 hour

Structure (SMILES) | % Inhibition | Z score
CCc1cccc(NC(=O)N2CCC3(CC2)C(=O)N(CC(=O)Nc2ccc(F)cc2)CN3c2ccccc2)c1 | 36% | -7.73
CCc1nccc(N2CCO[C@@H](CCF)C2)n1 | -14% | 1.24
CC(C)C1NC2(C(=O)Nc3ccccc32)C2C(=O)N(c3ccccc3Br)C(=O)C12 (stereo not drawn) | -7% | 0.83
O=C(CN1CC[C@@]2(CCCN(CC3CCCCC3)C2=O)C1)NCc1ccco1 | 3% | -0.61
COC(=O)NCC1(C)CC(NC(=O)OC)CC(C)(C)C1 (stereo not drawn) | -2% | 0.2
O=C(C1CCC(Cn2c(=O)[nH]c3ccsc3c2=O)CC1)N1CCCC1 (stereo not drawn) | 3% | -0.23
C#CCNC(=O)c1ccnc(OC2CCOCC2)c1 | -3% | 0.49
COC1CCN(C(=O)N[C@H]2COc3c2ccc(Cl)c3Cl)CC1 | 0% | 0.01
CCCN1C[C@]23C=C[C@H](O2)[C@H](C(=O)N(C)Cc2noc(C(C)C)n2)[C@@H]3C1=O | 5% | -0.85
CCc1nc(C)c(C(=O)N[C@H]2CCOC2)o1 | 8% | -1.05
O=C(c1cccnc1)N1CC(c2nc(-c3ccco3)no2)C1 | 18% | -2.02
CN(CCCn1cccn1)Cc1ccncc1Cl | 0% | -0.07
CC(=O)c1cc(C(=O)NC(C)(C)CC2Cc3ccccc3C2)[nH]n1 | -32% | 3.22
O=C(c1n[nH]c2c1CCCCCC2)N1CCC(c2nc(C3CCOCC3)no2)CC1 | -3% | 0.4
COc1ccc(NC(=O)[C@@H]2CCCN2Cc2csc(C(C)(C)C)n2)cc1 | -2% | 0.26
Cc1cccc(-n2nc(CC(N)=O)nc2-c2ccc(Cn3cccn3)o2)c1C | 6% | -0.99
CCN1CCC[C@@H]1CN(C)CCn1nc(C)cc1C | -8% | 1.43
O=C1NC2(CCCCC2)C(=O)N1CCC(=O)N1CCCC[C@H]1c1ccc(C(F)(F)F)cc1 | 2% | -0.28
CCc1cc(C(=O)N(CC(F)F)C2CCN(S(C)(=O)=O)CC2)[nH]n1 | 28% | -3.18
N#C[C@@H](C(=O)c1ccc(C(F)(F)F)cc1)c1nnnn1-c1ccccc1 | -9% | 1.08
CCc1ccc(S(=O)(=O)N2C[C@H](C(=O)NC3CCCCC3)C3(CCOCC3)C2)cc1 | -7% | 1.4

Structure (SMILES) | % Inhibition | Z score
Cn1nncc1S(=O)(=O)N1CCOc2c1cccc2C(F)(F)F | -6% | 0.95
Cc1c(C(=O)NC2(c3noc([C@H]4CCOC4)n3)CCCCCC2)cnn1C | 6% | -1.01
Cc1nn(C)cc1CNC(=O)C[C@@H](c1cccc(O)c1)c1ccccc1Cl | 12% | -1.63
COCc1nsc(NC(=O)c2occc2C)n1 | -15% | 1.7
Cn1ccc2cc(C(O)CNC(=O)C3CC=CCC3)ccc21 (stereo not drawn) | -8% | 0.97
CC[C@H](C)NC(=O)Cn1c2ccccc2c2nnc(-n3nc(C)cc3C)nc21 | 7% | -1.02
Cc1noc(C)c1S(=O)(=O)N1CCC2(CCCCO2)CC1 | -4% | 0.77
Cc1ccc(N2C(=O)CC[C@@]2(C)C(=O)NC2CCCC2)cc1 | -8% | 0.9
O=C(N[C@@H](Cc1ccccc1)C(=O)O)c1ccc(Br)cn1 | 0% | -0.05
CCOc1ccc(C(=O)N2c3ccccc3C[C@@H]2C)nn1 | 4% | -0.44
C#CCOc1ccccc1CN1CCCC2(C1)OCCO2 | -13% | 1.13
N#Cc1cccc(CN(Cc2cccc(C#N)c2)[C@@H]2CO[C@H](CNC(=O)c3ccccc3)[C@H]2O)c1 | 35% | -3.95
Cc1nc(C(=O)NCCN2CCOCC2)c(-c2ccc(F)cc2)s1 | -1% | 0.14
CC(C)N(Cc1ccccc1)C[C@H](C)N | 4% | -0.48
Cc1nnsc1CN(C)Cc1ccc([C@@H]2CCCCO2)s1 | -8% | 1.12
COc1ccc(-c2noc(NCCc3cccc(C)c3)n2)cc1OC | 9% | -1.42
COCCN1C(=O)C[C@H](CNC(=O)c2coc(C)c2)[C@H]1c1cnn(C)c1 | -3% | 0.36
Cc1nc(-c2noc(-c3ccccc3)n2)cn1CC(=O)Nc1ccc(F)c(Cl)c1 | 3% | -0.5
C[C@H](Oc1ccccc1)C(=O)N1CCCN(S(=O)(=O)c2cnn(C)c2)CC1 | 9% | -1.33
CC(=O)N(C)c1cccc(NC(=O)N[C@@H](C)Cc2c(C)noc2C)c1 | 6% | -0.9
CN(Cc1ccc(F)cc1)c1ncnc(Oc2ccccc2F)c1N | 6% | -0.96

Structure (SMILES) | % Inhibition | Z score
O=C(CCC(F)(F)F)NCCN1c2ccccc2N(C2CC2)S1(=O)=O | 17% | -2.22
Cc1ccccc1S(=O)(=O)Cc1ccc(C(=O)N2CCN(C)CC2)o1 | -8% | 1.07
CCCn1nccc1-c1cc(NC2CC2)nc(N)n1 | -19% | 2.01
OCc1ccc(NCc2cccc(OC3CC3)c2F)nc1 | -4% | 0.73
CC(C)CNC(=O)c1ccc2[nH]c(=O)[nH]c2n1 | 6% | -1.17
CC[C@H]1[C@H](NC(=O)c2oc(COc3ccccc3)cc2C)[C@H]2CCO[C@H]21 | -7% | 0.72
COC(=O)N1CC(NC(=O)[C@H](OC2CCCC2)c2ccccc2)C1 | 8% | -1.36
O=C(O)C1CCCC(C(=O)NCCc2ccc3c(c2)OCCO3)C1 (stereo not drawn) | -8% | 1.21
O=C(c1ccc(Cl)c(NCc2nc(=O)[nH][nH]2)c1)N1CCCCC1 | -4% | 0.43
O=c1n(Cc2ccccc2F)nc(C2CCNCC2)n1Cc1ccccc1 | -5% | 0.62
CC1CCN(S(=O)(=O)c2cccn(CC(=O)N(C)c3ccccc3)c2=O)CC1 | -5% | 0.71
COc1ccc(OC)c(-c2csc(NC(=O)CCOc3ccccc3OC)n2)c1 | 4% | -0.5
Cc1ccccc1CC(=O)Nc1nnc([C@H]2CC(=O)N(c3ccc(Cl)cc3)C2)o1 | -5% | 0.99
CCCN(CCC)c1ncc(C(=O)O)cc1NS(=O)(=O)c1ccccc1 | -10% | 1.79
O=C(COc1ccccc1)NC1CCC(n2cccn2)CC1 (stereo not drawn) | -5% | 0.96
O=C1CN(Cc2ccccc2)C(=O)[C@@H](CO)N1 | -6% | 1.28
c1ccc2sc(CN3CCOCC3)nc2c1 | -6% | 0.65
Cc1cc(NC(=O)C(C)N2CCCC(Cn3cncn3)C2)on1 (stereo not drawn) | 8% | -1.37
CC(NC1CC(C)N(c2ccccc2)C1)C1CCOCC1 (stereo not drawn) | 3% | -0.63
Cc1sc2ccccc2c1CN1C[C@H](N)[C@@H](O)C1 | -13% | 1.59
O=C(c1ccc(S(=O)(=O)N2CCCC2)cc1)N1CC[C@]2(CCOC2)C1 | 1% | -0.19

Structure (SMILES) | % Inhibition | Z score
CCn1nc(C)cc1C(=O)Nc1ccc(C(N)=O)nn1 | -7% | 1.3
Cc1nn(C)c(C)c1CCC(=O)N1CCc2[nH]cnc2[C@H]1c1cccnc1 | 0% | 0.02
O=S1(=O)CCN(S(=O)(=O)c2cccc3nsnc23)CC[C@H]1c1cccs1 | 5% | -0.89
CC1CN(C(=O)CCS(=O)(=O)c2ccc(Cl)cc2)CC(C)O1 (stereo not drawn) | -6% | 0.89
Cc1noc(Cl)c1CC(=O)N1CCC(c2ccccn2)CC1 | 3% | -0.56
Cc1ccc(S(=O)(=O)N2CCCCC2C)cc1C(=O)N1CCN(CC(C)O)C(C)C1 (stereo not drawn) | 8% | -0.75
O=C(CCc1cccnc1)N1CCC2(CC1)CC(=O)N(C[C@H]1CCCO1)C2 | -12% | 2.45
Cc1c(CNC2CCCCCCC2)c(C(=O)O)c(C)n1Cc1ccc(Cl)cc1 | -5% | 0.93
CC(=O)Nc1nc2ccc(S(=O)(=O)N3CCOCC3)cc2s1 | -10% | 1.21
CN(CCCC(=O)O)S(=O)(=O)N(C)C1CCCCC1 | -10% | 1.49
Cc1nc(CC(C)C)c(NC(=O)N2CCOC(C(F)(F)F)C2C)s1 (stereo not drawn) | -20% | 2.58
CC(C)CN1C[C@@H](CN2CCN(C)CC2)C[C@@H](C(=O)NCCc2c[nH]c3ccccc23)C1 | -5% | 0.55
C[C@H](O)CN(C(=O)Nc1cc(Cl)ccc1Cl)C1CCS(=O)(=O)CC1 | 4% | -0.54
COC[C@@](C)(C#N)NC(=O)c1cccc(F)c1Cl | 2% | -0.23
O=C(NCC1CCCO1)C1COC2(CCN(C(=O)c3ccccc3F)CC2)N1C(=O)c1ccccc1 (stereo not drawn) | -7% | 0.94
COc1ccc2cc(C(=O)NCc3nnc(N)s3)n(C)c2c1 | -8% | 1.04
Cc1cc(C)n(-c2ccc(CC(=O)Nc3ccccc3)cc2)n1 | -5% | 0.87
COc1nc(C)nc(N[C@@H](C)CO)c1C | 0% | -0.05
COCCc1nc(CC(N)=O)nn1C1Cc2ccccc2C1 | -11% | 1.09
CN(CCc1ccccc1)[C@H]1CCCN(C2CCN(Cc3ccco3)CC2)C1 | -2% | 0.33
CN(Cc1cscn1)C(=O)C1CC1c1ccc(Cl)cc1Cl (stereo not drawn) | -4% | 0.42
